# Results: the supplement of paper PMC8728848
# The other results are listed elsewhere or left out.
# What was measured:
# Assay in all cases: glycan array binding signal (z-score within array); higher = stronger binding
# Details in all cases: glycan notation: IUPAC condensed, linker removed
# Neu5Ac(a2-3)Gal = target: Neu5Ac(a2-3)Gal
# How it was run: (§1)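 The binding signal is a Z-score computed within each array and averaged over linkers. Arrays of the same protein sequence at different concentrations or buffers were also averaged together. Data originate from 3228 arrays in the Consortium for Functional Glycomics database, kept only where the protein sequence was available.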
# [1] = target: Neu5Ac(a2-3)Gal(b1-3)GalNAc
# How it was run: as §1
# [2] = target: Neu5Ac(a2-3)Gal(b1-3)GalNAc(b1-3)Gal(a1-4)Gal(b1-4)Glc
# How it was run: as §1
# [3] = target: Neu5Ac(a2-3)Gal(b1-3)GalNAc(b1-4)[Neu5Ac(a2-3)]Gal(b1-4)Glc
# How it was run: as §1
# [4] = target: Neu5Ac(a2-3)Gal(b1-3)GalNAc(b1-4)[Neu5Ac(a2-8)Neu5Ac(a2-3)]Gal(b1-4)Glc
# How it was run: as §1
# [5] = target: Neu5Ac(a2-3)Gal(b1-3)GalNAc6S
# How it was run: as §1
# [6] = target: Neu5Ac(a2-3)Gal(b1-3)GlcNAc
# How it was run: as §1
# [7] = target: Neu5Ac(a2-3)Gal(b1-3)GlcNAc(b1-2)Man
# How it was run: as §1
# [8] = target: Neu5Ac(a2-3)Gal(b1-3)GlcNAc(b1-2)Man(a1-3)[GlcNAc(b1-4)][Neu5Ac(a2-3)Gal(b1-3)GlcNAc(b1-2)Man(a1-6)]Man(b1-4)GlcNAc(b1-4)GlcNAc
# How it was run: as §1
# [9] = target: Neu5Ac(a2-3)Gal(b1-3)GlcNAc(b1-2)Man(a1-3)[Neu5Ac(a2-3)Gal(b1-3)GlcNAc(b1-2)Man(a1-6)]Man(b1-4)GlcNAc(b1-4)GlcNAc
# How it was run: as §1
# [10] = target: Neu5Ac(a2-3)Gal(b1-3)GlcNAc(b1-3)Gal(b1-3)GlcNAc
# How it was run: as §1
# [11] = target: Neu5Ac(a2-3)Gal(b1-3)GlcNAc(b1-3)Gal(b1-4)GlcNAc
# How it was run: as §1
# [12] = target: Neu5Ac(a2-3)Gal(b1-3)GlcNAc(b1-3)GalNAc
# How it was run: as §1
# [13] = target: Neu5Ac(a2-3)Gal(b1-3)GlcNAc(b1-4)Gal(b1-4)Glc
# How it was run: as §1
# [14] = target: Neu5Ac(a2-3)Gal(b1-3)GlcNAc(b1-6)GalNAc
# How it was run: as §1
# [15] = target: Neu5Ac(a2-3)Gal(b1-3)GlcNAc6S
# How it was run: as §1
# [16] = target: Neu5Ac(a2-3)Gal(b1-3)[Fuc(a1-4)]GlcNAc
# How it was run: as §1
# [17] = target: Neu5Ac(a2-3)Gal(b1-3)[Fuc(a1-4)]GlcNAc(b1-3)Gal(b1-3)[Fuc(a1-4)]GlcNAc
# How it was run: as §1
# [18] = target: Neu5Ac(a2-3)Gal(b1-3)[Fuc(a1-4)]GlcNAc(b1-3)Gal(b1-4)[Fuc(a1-3)]GlcNAc
# How it was run: as §1
# [19] = target: Neu5Ac(a2-3)Gal(b1-3)[GlcNAc(b1-6)]GalNAc
# How it was run: as §1
# [20] = target: Neu5Ac(a2-3)Gal(b1-3)[Neu5Ac(a2-6)]GalNAc
# How it was run: as §1
# [21] = target: Neu5Ac(a2-3)Gal(b1-3)[Neu5Ac(a2-6)]GlcNAc(b1-3)[Fuc(a1-3)[Gal(b1-4)]GlcNAc(b1-6)]Gal(b1-4)Glc
# How it was run: as §1
# [22] = target: Neu5Ac(a2-3)Gal(b1-3)]Neu5Ac(a2-3)Gal(b1-4)]GlcNAc
# How it was run: as §1
# Neu5Ac(a2-3)Gal(b1-4)Glc = target: Neu5Ac(a2-3)Gal(b1-4)Glc
# How it was run: as §1
# [23] = target: Neu5Ac(a2-3)Gal(b1-4)GlcNAc
# How it was run: as §1
# [24] = target: Neu5Ac(a2-3)Gal(b1-4)GlcNAc(b1-2)Man
# How it was run: as §1
# [25] = target: Neu5Ac(a2-3)Gal(b1-4)GlcNAc(b1-2)Man(a1-3)[GlcNAc(b1-4)][Neu5Ac(a2-3)Gal(b1-4)GlcNAc(b1-2)Man(a1-6)]Man(b1-4)GlcNAc(b1-4)GlcNAc
# How it was run: as §1
# [26] = target: Neu5Ac(a2-3)Gal(b1-4)GlcNAc(b1-2)Man(a1-3)[Neu5Ac(a2-3)Gal(b1-4)GlcNAc(b1-2)Man(a1-6)]Man(b1-4)GlcNAc(b1-4)GlcNAc
# How it was run: as §1
# [27] = target: Neu5Ac(a2-3)Gal(b1-4)GlcNAc(b1-2)Man(a1-3)[Neu5Ac(a2-3)Gal(b1-4)GlcNAc(b1-2)Man(a1-6)]Man(b1-4)GlcNAc(b1-4)[Fuc(a1-6)]GlcNAc
# How it was run: as §1
# [28] = target: Neu5Ac(a2-3)Gal(b1-4)GlcNAc(b1-2)Man(a1-3)[Neu5Ac(a2-6)Gal(b1-4)GlcNAc(b1-2)Man(a1-6)]Man(b1-4)GlcNAc(b1-4)GlcNAc
# How it was run: as §1
# [29] = target: Neu5Ac(a2-3)Gal(b1-4)GlcNAc(b1-2)[Neu5Ac(a2-3)Gal(b1-4)GlcNAc(b1-4)]Man(a1-3)[GlcNAc(b1-4)][Neu5Ac(a2-3)Gal(b1-4)GlcNAc(b1-2)[Neu5Ac(a2-3)Gal(b1-4)GlcNAc(b1-6)]Man(a1-6)]Man(b1-4)GlcNAc(b1-4)GlcNAc
# How it was run: as §1
# [30] = target: Neu5Ac(a2-3)Gal(b1-4)GlcNAc(b1-2)[Neu5Ac(a2-3)Gal(b1-4)GlcNAc(b1-4)]Man(a1-3)[GlcNAc(b1-4)][Neu5Ac(a2-3)Gal(b1-4)GlcNAc(b1-4)Man(a1-6)]Man(b1-4)GlcNAc(b1-4)GlcNAc
# How it was run: as §1
# [31] = target: Neu5Ac(a2-3)Gal(b1-4)GlcNAc(b1-2)[Neu5Ac(a2-3)Gal(b1-4)GlcNAc(b1-6)]Man(a1-6)[Neu5Ac(a2-3)Gal(b1-4)GlcNAc(b1-2)Man(a1-3)]Man(b1-4)GlcNAc(b1-4)GlcNAc
# How it was run: as §1
# [32] = target: Neu5Ac(a2-3)Gal(b1-4)GlcNAc(b1-2)[Neu5Ac(a2-3)Gal(b1-4)GlcNAc(b1-6)]Man(a1-6)[Neu5Ac(a2-3)Gal(b1-4)GlcNAc(b1-2)Man(a1-3)][GlcNAc(b1-4)]Man(b1-4)GlcNAc(b1-4)GlcNAc
# How it was run: as §1
# [33] = target: Neu5Ac(a2-3)Gal(b1-4)GlcNAc(b1-3)Gal
# How it was run: as §1
# [34] = target: Neu5Ac(a2-3)Gal(b1-4)GlcNAc(b1-3)Gal(b1-3)GlcNAc
# How it was run: as §1
# [35] = target: Neu5Ac(a2-3)Gal(b1-4)GlcNAc(b1-3)Gal(b1-4)GlcNAc
# How it was run: as §1
# [36] = target: Neu5Ac(a2-3)Gal(b1-4)GlcNAc(b1-3)Gal(b1-4)GlcNAc(b1-2)Man(a1-3)[Neu5Ac(a2-3)Gal(b1-4)GlcNAc(b1-3)Gal(b1-4)GlcNAc(b1-2)Man(a1-6)]Man(b1-4)GlcNAc(b1-4)GlcNAc
# How it was run: as §1
# [37] = target: Neu5Ac(a2-3)Gal(b1-4)GlcNAc(b1-3)Gal(b1-4)GlcNAc(b1-3)Gal(b1-4)GlcNAc
# How it was run: as §1
# [38] = target: Neu5Ac(a2-3)Gal(b1-4)GlcNAc(b1-3)Gal(b1-4)GlcNAc(b1-3)Gal(b1-4)GlcNAc(b1-2)Man(a1-3)[Neu5Ac(a2-3)Gal(b1-4)GlcNAc(b1-3)Gal(b1-4)GlcNAc(b1-3)Gal(b1-4)GlcNAc(b1-2)Man(a1-6)]GalNAc
# How it was run: as §1
# [39] = target: Neu5Ac(a2-3)Gal(b1-4)GlcNAc(b1-3)Gal(b1-4)GlcNAc(b1-3)GalNAc
# How it was run: as §1
# [40] = target: Neu5Ac(a2-3)Gal(b1-4)GlcNAc(b1-3)Gal(b1-4)GlcNAc(b1-3)[Neu5Ac(a2-3)Gal(b1-4)GlcNAc(b1-3)Gal(b1-4)GlcNAc(b1-6)]GalNAc
# How it was run: as §1
# [41] = target: Neu5Ac(a2-3)Gal(b1-4)GlcNAc(b1-3)Gal(b1-4)GlcNAc(b1-6)[Gal(b1-3)]GalNAc
# How it was run: as §1
# [42] = target: Neu5Ac(a2-3)Gal(b1-4)GlcNAc(b1-3)Gal(b1-4)[Fuc(a1-3)]GlcNAc
# How it was run: as §1
# [43] = target: Neu5Ac(a2-3)Gal(b1-4)GlcNAc(b1-3)GalNAc
# How it was run: as §1
binder,measurement,setting,value
"CFEM-PPl (Pichia pastoris), F2QPV1 (protein) AVATPPACLLACAAEVVKESSDCDALNNIQCICENEGSAIHACLESTCPDGLSSTALQSFEDVCESVGTEANLDE",glycan array binding signal (z-score),Neu5Ac(a2-3)Gal,-0.313
same,glycan array binding signal (z-score),[1],-0.16
same,glycan array binding signal (z-score),[2],0.058
same,glycan array binding signal (z-score),[3],-0.267
same,glycan array binding signal (z-score),[4],-0.11
same,glycan array binding signal (z-score),[5],-0.222
same,glycan array binding signal (z-score),[6],-0.26
same,glycan array binding signal (z-score),[7],-0.229
same,glycan array binding signal (z-score),[8],-0.135
same,glycan array binding signal (z-score),[9],-0.355
same,glycan array binding signal (z-score),[10],-0.26
same,glycan array binding signal (z-score),[11],-0.283
same,glycan array binding signal (z-score),[12],-0.285
same,glycan array binding signal (z-score),[13],-0.344
same,glycan array binding signal (z-score),[14],-0.343
same,glycan array binding signal (z-score),[15],-0.331
same,glycan array binding signal (z-score),[16],-0.137
same,glycan array binding signal (z-score),[17],-0.196
same,glycan array binding signal (z-score),[18],-0.193
same,glycan array binding signal (z-score),[19],-0.379
same,glycan array binding signal (z-score),[20],-0.102
same,glycan array binding signal (z-score),[21],-0.169
same,glycan array binding signal (z-score),[22],-0.27
same,glycan array binding signal (z-score),Neu5Ac(a2-3)Gal(b1-4)Glc,-0.259
same,glycan array binding signal (z-score),[23],-0.261
same,glycan array binding signal (z-score),[24],-0.169
same,glycan array binding signal (z-score),[25],-0.274
same,glycan array binding signal (z-score),[26],-0.287
same,glycan array binding signal (z-score),[27],-0.033
same,glycan array binding signal (z-score),[28],-0.337
same,glycan array binding signal (z-score),[29],-0.169
same,glycan array binding signal (z-score),[30],-0.305
same,glycan array binding signal (z-score),[31],-0.25
same,glycan array binding signal (z-score),[32],-0.222
same,glycan array binding signal (z-score),[33],-0.357
same,glycan array binding signal (z-score),[34],-0.337
same,glycan array binding signal (z-score),[35],-0.183
same,glycan array binding signal (z-score),[36],-0.218
same,glycan array binding signal (z-score),[37],-0.249
same,glycan array binding signal (z-score),[38],-0.203
same,glycan array binding signal (z-score),[39],-0.295
same,glycan array binding signal (z-score),[40],-0.247
same,glycan array binding signal (z-score),[41],0.534
same,glycan array binding signal (z-score),[42],-0.181
same,glycan array binding signal (z-score),[43],-0.298
